Consider 115 sequences from the BET-seq Pho4 binding data (Le et al. 2018).

The list shows a part of the results. The energies were worked out here from pooled read counts, against the library average; single values are noisy.

This experiment has as its target T1, Pho4 (S. cerevisiae) (UniProt P07270).
T1 sequence: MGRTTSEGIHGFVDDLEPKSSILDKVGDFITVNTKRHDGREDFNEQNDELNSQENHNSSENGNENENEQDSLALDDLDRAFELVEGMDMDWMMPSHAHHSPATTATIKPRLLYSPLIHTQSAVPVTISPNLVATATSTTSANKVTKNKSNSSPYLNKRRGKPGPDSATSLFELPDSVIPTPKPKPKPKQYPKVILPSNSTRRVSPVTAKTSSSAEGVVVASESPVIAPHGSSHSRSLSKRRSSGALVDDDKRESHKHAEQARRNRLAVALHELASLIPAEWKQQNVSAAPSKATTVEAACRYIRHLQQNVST
Nature of the experiment: relative binding free energy (BET-seq); higher = weaker binding. To be noted: reference: library average.
For the sequence TAGTTCACGTGATTAA, the “relative binding free energy” value is 0.37 kcal/mol.

For the sequence CGGTTCACGTGGTGCT, the “relative binding free energy” value was 0.18 kcal/mol.

Turning to AGTTTCACGTGTTCAT, the “relative binding free energy” value worked out at 0.27 kcal/mol.

On to GTAGTCACGTGTTCTT, for which the “relative binding free energy” value is 0.1 kcal/mol.

In the case of ACGGTCACGTGAGAGG, the “relative binding free energy” value was determined as 0.17 kcal/mol.

For ACATGCACGTGGTGTT, the “relative binding free energy” value is -0.29 kcal/mol.

On to AGCATCACGTGGTGTT, for which the “relative binding free energy” value was 0.13 kcal/mol.

In the case of GTGAACACGTGTAGGT, the “relative binding free energy” value worked out at 0 kcal/mol.

As for TGCGACACGTGTTGGG, the “relative binding free energy” value was -0.05 kcal/mol.

Consider TGGTTCACGTGAAATA, for which the “relative binding free energy” value stood at 0.56 kcal/mol.

On to AGGGCCACGTGATGGG, for which the “relative binding free energy” value amounted to 0.11 kcal/mol.

On to GCTAGCACGTGTTATG, for which the “relative binding free energy” value amounted to 0.02 kcal/mol.

Take TGAAACACGTGTTGGG: the “relative binding free energy” value came to 0.17 kcal/mol.

With GGGTGCACGTGGCGGG, the “relative binding free energy” value is -0.07 kcal/mol.

Turning to TCTAACACGTGGTGTT, the “relative binding free energy” value was determined as 0.12 kcal/mol.

As for TATGTCACGTGTGCGG, the “relative binding free energy” value came out at 0.13 kcal/mol.

As to GGCAACACGTGTTGTA, the “relative binding free energy” value was 0.1 kcal/mol.

Take AGCGGCACGTGGAGAG: the “relative binding free energy” value was 0 kcal/mol.

Take TCGGTCACGTGTTCGT: the “relative binding free energy” value worked out at 0.16 kcal/mol.

Take AGATACACGTGCGAGG: the “relative binding free energy” value amounted to 0.16 kcal/mol.

Regarding CACGTCACGTGGGGGG, the “relative binding free energy” value was -0.11 kcal/mol.

With CGAGGCACGTGTGAGT, the “relative binding free energy” value was found to be 0.09 kcal/mol.

ATCAGCACGTGGGAGT: the “relative binding free energy” value is -0.19 kcal/mol.

AGGGTCACGTGTTTGG: the “relative binding free energy” value amounted to 0.17 kcal/mol.

As to TGGCGCACGTGTGGGC, the “relative binding free energy” value worked out at 0.04 kcal/mol.

In the case of GGTTGCACGTGCGGGG, the “relative binding free energy” value worked out at 0.01 kcal/mol.

For GGTAGCACGTGCTGTG, the “relative binding free energy” value is -0.05 kcal/mol.

Take TGCAGCACGTGGAGGT: the “relative binding free energy” value was -0.09 kcal/mol.

Consider AAAATCACGTGGTTTT, for which the “relative binding free energy” value was 0.15 kcal/mol.

As to TTGGCCACGTGTGTAT, the “relative binding free energy” value stood at 0 kcal/mol.

Take AAAATCACGTGTGGGG: the “relative binding free energy” value came out at 0.34 kcal/mol.

In the case of GTGGACACGTGGTTTA, the “relative binding free energy” value was 0.09 kcal/mol.

In the case of AGGTGCACGTGTCACG, the “relative binding free energy” value was determined as 0 kcal/mol.

For CGGGGCACGTGTATGG, the “relative binding free energy” value was -0.01 kcal/mol.

TGTGACACGTGGTGAT: the “relative binding free energy” value is 0 kcal/mol.

In the case of TAGTGCACGTGTTATT, the “relative binding free energy” value was -0.05 kcal/mol.

GGGGGCACGTGCGAGG: the “relative binding free energy” value is -0.09 kcal/mol.

For the sequence TGGTTCACGTGGCACG, the “relative binding free energy” value was found to be 0.25 kcal/mol.

Regarding GGGCTCACGTGGGTGT, the “relative binding free energy” value is 0.1 kcal/mol.

As for TATCTCACGTGATTAG, the “relative binding free energy” value turned out to be 0.28 kcal/mol.

TGTGGCACGTGCGTCT: the “relative binding free energy” value is -0.26 kcal/mol.

As for TTTGGCACGTGTACTT, the “relative binding free energy” value was -0.03 kcal/mol.

With TAGGACACGTGAGGAT, the “relative binding free energy” value was 0.34 kcal/mol.

GTTCGCACGTGTGGTG: the “relative binding free energy” value was 0.08 kcal/mol.

For the sequence GGAAGCACGTGAGGGC, the “relative binding free energy” value was found to be 0.13 kcal/mol.

For GTAGACACGTGTCGTG, the “relative binding free energy” value was -0.02 kcal/mol.

Turning to GTTTGCACGTGTAATT, the “relative binding free energy” value is 0.24 kcal/mol.

Consider ATCTACACGTGAGGGT, for which the “relative binding free energy” value came to 0.07 kcal/mol.

Consider CGTAACACGTGTTTTG, for which the “relative binding free energy” value stood at 0.02 kcal/mol.

TAGTTCACGTGTCATA: the “relative binding free energy” value stood at 0.11 kcal/mol.

Regarding ATTGGCACGTGGGCGG, the “relative binding free energy” value is -0.31 kcal/mol.

With ATCAGCACGTGTTAGT, the “relative binding free energy” value was -0.01 kcal/mol.

On to GGACGCACGTGAGGCG, for which the “relative binding free energy” value turned out to be 0.14 kcal/mol.

Consider GGTGTCACGTGGTCCT, for which the “relative binding free energy” value was determined as 0.03 kcal/mol.

GTCTGCACGTGGTGTG: the “relative binding free energy” value was -0.13 kcal/mol.

In the case of GAGATCACGTGGAGGG, the “relative binding free energy” value turned out to be 0.23 kcal/mol.

As for GTGAGCACGTGCTTAG, the “relative binding free energy” value is -0.1 kcal/mol.

Consider AAATACACGTGGTGGT, for which the “relative binding free energy” value was -0.08 kcal/mol.

Consider TAGTTCACGTGGTTAC, for which the “relative binding free energy” value came out at 0.35 kcal/mol.

TTAGTCACGTGCGGTG: the “relative binding free energy” value is -0.01 kcal/mol.

As to TTAAACACGTGGTTCG, the “relative binding free energy” value was -0.02 kcal/mol.

For the sequence GTTATCACGTGTTGAG, the “relative binding free energy” value was 0.06 kcal/mol.

As to AGATTCACGTGTGGTT, the “relative binding free energy” value was determined as 0.24 kcal/mol.

As to TCGGGCACGTGGGATG, the “relative binding free energy” value was -0.1 kcal/mol.

As to CATTGCACGTGAGATT, the “relative binding free energy” value is 0.23 kcal/mol.

With GGCTTCACGTGGATAT, the “relative binding free energy” value was determined as 0.26 kcal/mol.

For GGGAGCACGTGAACGG, the “relative binding free energy” value was found to be 0.14 kcal/mol.

Regarding TCAAACACGTGGGGGG, the “relative binding free energy” value was -0.22 kcal/mol.

Regarding GAAGTCACGTGTAAGG, the “relative binding free energy” value worked out at 0.34 kcal/mol.

As for AGGGTCACGTGGGCGT, the “relative binding free energy” value is -0.06 kcal/mol.

ATTAGCACGTGATGTA: the “relative binding free energy” value stood at 0.05 kcal/mol.

As to GAGTTCACGTGGGGGA, the “relative binding free energy” value is 0.31 kcal/mol.

Turning to TTAATCACGTGGTGGA, the “relative binding free energy” value came to 0.1 kcal/mol.

TAGTTCACGTGAATAT: the “relative binding free energy” value turned out to be 0.43 kcal/mol.

Regarding TTGTTCACGTGTAAGA, the “relative binding free energy” value amounted to 0.32 kcal/mol.

Consider TTCGACACGTGATTGG, for which the “relative binding free energy” value came to 0.13 kcal/mol.

As to GAGGTCACGTGGGTCA, the “relative binding free energy” value was -0.06 kcal/mol.

In the case of TGGAGCACGTGGATAA, the “relative binding free energy” value is -0.03 kcal/mol.

As for TCGGCCACGTGTGGAT, the “relative binding free energy” value came to 0.22 kcal/mol.

As for TATGTCACGTGTGCCG, the “relative binding free energy” value is 0 kcal/mol.

On to TCGTTCACGTGGCAGT, for which the “relative binding free energy” value is 0.21 kcal/mol.

For ATCATCACGTGATGGG, the “relative binding free energy” value came out at 0.33 kcal/mol.

ATGCTCACGTGGGCGT: the “relative binding free energy” value came out at 0.09 kcal/mol.

Regarding AGTGACACGTGGCGTA, the “relative binding free energy” value is -0.23 kcal/mol.

In the case of AGTCGCACGTGGTTTT, the “relative binding free energy” value is 0.11 kcal/mol.

Regarding ATGCTCACGTGCGTTG, the “relative binding free energy” value is 0.18 kcal/mol.

AGTGTCACGTGGCGGT: the “relative binding free energy” value is 0.05 kcal/mol.

For AATAGCACGTGGGAGT, the “relative binding free energy” value was -0.07 kcal/mol.

Take TTTGGCACGTGTCGGG: the “relative binding free energy” value is -0.22 kcal/mol.

For CACTACACGTGGTGGT, the “relative binding free energy” value is 0.16 kcal/mol.

In the case of GGCTTCACGTGGTAGC, the “relative binding free energy” value came out at 0.43 kcal/mol.

With ATGGCCACGTGTAGTA, the “relative binding free energy” value is -0.08 kcal/mol.

As for AGGAACACGTGGAGAG, the “relative binding free energy” value worked out at 0.11 kcal/mol.

On to ACGTGCACGTGGTTAG, for which the “relative binding free energy” value was -0.13 kcal/mol.

TAATACACGTGAGGAG: the “relative binding free energy” value came to 0.2 kcal/mol.

Take GTTTACACGTGATGGG: the “relative binding free energy” value stood at 0.15 kcal/mol.

As for TCTTTCACGTGTAATT, the “relative binding free energy” value worked out at 0.35 kcal/mol.

Turning to TATGGCACGTGAAGAT, the “relative binding free energy” value is -0.04 kcal/mol.

With GGGGGCACGTGGCTCA, the “relative binding free energy” value was -0.23 kcal/mol.

For the sequence AGTAACACGTGTAGGA, the “relative binding free energy” value turned out to be 0.05 kcal/mol.

For the sequence ATCAGCACGTGGTGTT, the “relative binding free energy” value was -0.23 kcal/mol.

As for TTAGTCACGTGTTAGC, the “relative binding free energy” value came to 0.12 kcal/mol.

As to GCATACACGTGGGGTG, the “relative binding free energy” value was 0.09 kcal/mol.

With GGTGGCACGTGGCGGG, the “relative binding free energy” value is -0.1 kcal/mol.

With AATAGCACGTGTGAGG, the “relative binding free energy” value is -0.15 kcal/mol.

Regarding GTCTACACGTGTAGGG, the “relative binding free energy” value is 0.07 kcal/mol.

For TAACTCACGTGGGTGG, the “relative binding free energy” value came out at 0.15 kcal/mol.

Regarding GGGTCCACGTGTTTTA, the “relative binding free energy” value stood at 0 kcal/mol.

For ATAAGCACGTGAGAGG, the “relative binding free energy” value turned out to be 0.1 kcal/mol.

Take CTAGTCACGTGGTTAG: the “relative binding free energy” value came to 0.09 kcal/mol.

Regarding TTTATCACGTGAGGTT, the “relative binding free energy” value worked out at 0.31 kcal/mol.

For the sequence CTGTTCACGTGAAAGT, the “relative binding free energy” value amounted to 0.43 kcal/mol.

For the sequence CTTAGCACGTGGGAAT, the “relative binding free energy” value is -0.03 kcal/mol.

As to GTGCTCACGTGGGGGT, the “relative binding free energy” value was determined as 0.16 kcal/mol.

For AGAGTCACGTGTGCGA, the “relative binding free energy” value amounted to 0.09 kcal/mol.
